{"source": "the supplement of paper PMC3334620", "note": "Over roughly 33,000 sequences, “E-score (-0.5 to 0.5)” has its median near -0.012; the highest 2% begin near 0.27. This is one part of the list.", "data": [{"target": "T1, Vhr1 (UniProt P40522)", "T1 sequence": "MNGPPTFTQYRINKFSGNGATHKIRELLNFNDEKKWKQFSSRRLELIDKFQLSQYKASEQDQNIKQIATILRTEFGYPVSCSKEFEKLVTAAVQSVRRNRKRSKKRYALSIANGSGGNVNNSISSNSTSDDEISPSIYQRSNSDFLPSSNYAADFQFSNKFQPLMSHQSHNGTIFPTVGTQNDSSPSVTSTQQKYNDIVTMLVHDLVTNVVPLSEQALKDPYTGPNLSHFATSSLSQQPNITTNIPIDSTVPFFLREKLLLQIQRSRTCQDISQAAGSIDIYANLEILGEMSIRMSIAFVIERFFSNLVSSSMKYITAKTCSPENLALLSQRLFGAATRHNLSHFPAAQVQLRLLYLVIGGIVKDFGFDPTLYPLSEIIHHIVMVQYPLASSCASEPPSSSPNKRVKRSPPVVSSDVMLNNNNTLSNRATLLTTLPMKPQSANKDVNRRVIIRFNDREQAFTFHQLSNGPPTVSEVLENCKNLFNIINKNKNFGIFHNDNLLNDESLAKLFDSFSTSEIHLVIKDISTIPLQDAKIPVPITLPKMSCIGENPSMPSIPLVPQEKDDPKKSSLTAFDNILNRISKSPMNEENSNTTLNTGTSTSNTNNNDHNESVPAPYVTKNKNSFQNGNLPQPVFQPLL", "assay": "PBM E-score (8-mer binding enrichment) (E-score (-0.5 to 0.5)); higher = stronger / more preferred TF binding; most listed sequences are background and not binding sites", "settings": "protein concentration: 200 nM; construct: GST-full length", "how_it_was_run": "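For each ungapped eight-base word taken together with its reverse complement, the Universal PBM Analysis Suite assigned an E-score. Binding data came from GST-tagged yeast transcription factors, applied at about 100-200 nM, on universal all-10-mer Agilent arrays made double-stranded by primer extension. Fluorescent anti-GST marked bound protein, and scans were normalised with masliner.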", "values": [{"sequence": "CCCCTACC", "PBM E-score": 0.0338}, {"sequence": "ACAAAAAG", "PBM E-score": -0.137}, {"sequence": "ACAATTTG", "PBM E-score": -0.138}, {"sequence": "AAACTGTA", "PBM E-score": -0.0153}, {"sequence": "GGTGGGGA", "PBM E-score": 0.378}, {"sequence": "AGTGTAAT", "PBM E-score": 0.047}, {"sequence": "CACTAAAC", "PBM E-score": 0.147}, {"sequence": "AAACGGCG", "PBM E-score": 0.157}, {"sequence": "CCGGGCGA", "PBM E-score": -0.0669}, {"sequence": "AAACCGAG", "PBM E-score": -0.0646}, {"sequence": "ATGACACG", "PBM E-score": 0.187}, {"sequence": "AGCGTCGC", "PBM E-score": -0.0775}, {"sequence": "AGGACGGA", "PBM E-score": -0.0319}, {"sequence": "GCATAATA", "PBM E-score": 0.129}, {"sequence": "AAGCAGGG", "PBM E-score": -0.188}, {"sequence": "ACTACAGC", "PBM E-score": 0.068}, {"sequence": "CTGTCCAC", "PBM E-score": -0.158}, {"sequence": "AAATATAA", "PBM E-score": 0.0163}, {"sequence": "CCACGAGG", "PBM E-score": 0.0379}, {"sequence": "ATGCCCGC", "PBM E-score": 0.156}, {"sequence": "CACATGAG", "PBM E-score": 0.065}, {"sequence": "CAACTACC", "PBM E-score": 0.0623}, {"sequence": "CGAGCGCA", "PBM E-score": -0.0455}, {"sequence": "TAGACGCA", "PBM E-score": -0.2}, {"sequence": "ACTTAAAC", "PBM E-score": -0.133}, {"sequence": "GCCAGCAC", "PBM E-score": -0.0902}, {"sequence": "TCCGGAAA", "PBM E-score": -0.206}, {"sequence": "CGCACCCG", "PBM E-score": 0.11}, {"sequence": "TCGACGAA", "PBM E-score": -0.0551}, {"sequence": "GTTAGGAA", "PBM E-score": -0.0657}, {"sequence": "AGGGCAAA", "PBM E-score": -0.153}, {"sequence": "GCGCAAAC", "PBM E-score": 0.12}, {"sequence": "GCTGCAAC", "PBM E-score": 0.0689}, {"sequence": "ATGTGTTC", "PBM E-score": 0.104}, {"sequence": "AGCGAGGA", "PBM E-score": -0.127}, {"sequence": "CATGAAAG", "PBM E-score": -0.0898}, {"sequence": "CATACGGA", "PBM E-score": 0.1}, {"sequence": "CCGGGCGC", "PBM E-score": -0.0589}, {"sequence": "CACTTTAG", "PBM E-score": 0.0417}, {"sequence": "ATTGAGAC", "PBM E-score": 0.18}, {"sequence": "GGATGTAA", "PBM E-score": 0.118}, {"sequence": "GGATTCTA", "PBM E-score": 0.115}, {"sequence": "CTCGTAGC", "PBM E-score": 0.134}, {"sequence": "ATCTGTTC", "PBM E-score": -0.0855}, {"sequence": "GCAGAGGC", "PBM E-score": -0.0359}, {"sequence": "AAATAACG", "PBM E-score": -0.00647}, {"sequence": "ATCGCCTG", "PBM E-score": 0.202}, {"sequence": "CGGGCGAG", "PBM E-score": 0.103}, {"sequence": "AGACGCAA", "PBM E-score": 0.172}, {"sequence": "GGGCAGAA", "PBM E-score": 0.172}, {"sequence": "GAGCGTGC", "PBM E-score": 0.0546}, {"sequence": "AGCAGATC", "PBM E-score": 0.0967}, {"sequence": "ATATTTGC", "PBM E-score": 0.00721}, {"sequence": "ATCGCAGG", "PBM E-score": 0.0408}, {"sequence": "TGTTGGAA", "PBM E-score": 0.0714}, {"sequence": "CATGCCCC", "PBM E-score": 0.0598}, {"sequence": "AACACGCA", "PBM E-score": -0.0949}, {"sequence": "CGTCTCCC", "PBM E-score": -0.161}, {"sequence": "AGACTTGA", "PBM E-score": -0.0302}, {"sequence": "GCATGCGC", "PBM E-score": 0.037}, {"sequence": "AGTACAAT", "PBM E-score": 0.162}, {"sequence": "CCGAAATC", "PBM E-score": -0.0397}, {"sequence": "CGTCTTAC", "PBM E-score": -0.178}, {"sequence": "CCCTTACG", "PBM E-score": -0.269}, {"sequence": "TGTGCAAA", "PBM E-score": -0.243}, {"sequence": "CATATCTA", "PBM E-score": 0.253}, {"sequence": "AGCGGGTA", "PBM E-score": 0.0529}, {"sequence": "GGCTCAAC", "PBM E-score": -0.199}, {"sequence": "TCCTCAGA", "PBM E-score": -0.26}, {"sequence": "CGCGCAAG", "PBM E-score": 0.221}, {"sequence": "CAACAACC", "PBM E-score": -0.01}, {"sequence": "CTAAGTTA", "PBM E-score": -0.0897}, {"sequence": "AAGATCAT", "PBM E-score": 0.0182}, {"sequence": "CCTCTGAC", "PBM E-score": 0.128}, {"sequence": "CGAGCCAC", "PBM E-score": -0.00024}, {"sequence": "CCGAATAA", "PBM E-score": -0.0769}, {"sequence": "CCACAAAG", "PBM E-score": 0.0507}, {"sequence": "ACCCACAT", "PBM E-score": 0.271}, {"sequence": "GTACGCTA", "PBM E-score": -0.0119}, {"sequence": "ACAGAAGA", "PBM E-score": -0.112}, {"sequence": "ACGGTGTG", "PBM E-score": -0.0437}, {"sequence": "ACATTTTG", "PBM E-score": -0.0763}, {"sequence": "CTGTCTTA", "PBM E-score": -0.177}, {"sequence": "AGACACGG", "PBM E-score": 0.148}, {"sequence": "CGACTAGC", "PBM E-score": 0.111}, {"sequence": "ATGCCCCA", "PBM E-score": 0.00289}, {"sequence": "CAAGGAGG", "PBM E-score": -0.143}, {"sequence": "AGAATCCG", "PBM E-score": 0.0279}, {"sequence": "AATCTTCT", "PBM E-score": 0.122}, {"sequence": "TCGGGAGA", "PBM E-score": -0.107}, {"sequence": "CTGTGACA", "PBM E-score": 0.132}, {"sequence": "ATAGACGC", "PBM E-score": -0.0084}, {"sequence": "CCGCTGCA", "PBM E-score": 0.0124}, {"sequence": "ATCAGGAA", "PBM E-score": 0.0718}, {"sequence": "CTGCGAAG", "PBM E-score": -0.193}, {"sequence": "AACAGAGC", "PBM E-score": 0.0551}, {"sequence": "AACATCTG", "PBM E-score": -0.249}, {"sequence": "AGCCGAGA", "PBM E-score": 0.0426}, {"sequence": "GGCACCCC", "PBM E-score": -0.0744}, {"sequence": "GCTATAGC", "PBM E-score": -0.43}, {"sequence": "AAGCTAGG", "PBM E-score": -0.037}, {"sequence": "CCCCAGTC", "PBM E-score": -0.0712}, {"sequence": "CAGCAATA", "PBM E-score": -0.0124}, {"sequence": "AGGGCTTC", "PBM E-score": -0.123}, {"sequence": "ATCAAGAT", "PBM E-score": -0.029}, {"sequence": "GGCCGATA", "PBM E-score": -0.246}, {"sequence": "ACCTATCG", "PBM E-score": 0.0733}, {"sequence": "TTCACGAA", "PBM E-score": -0.128}, {"sequence": "ATGGCTTA", "PBM E-score": 0.0442}]}]}
